Experimental data as given in the supplement of paper PMC10369915.
The other results are listed elsewhere or left out. Cut-off read from the data, not from the text of the source: active = 3.2 or more and inactive = the rest. The signal is at background level for most entries.

Columns and labels:
Experiment in all cases: enrichment score (SH2-bound / input frequency) (ratio); bacterial display of known human phosphotyrosine sites (pTyr-Var adds point mutants) read by sequencing; higher = stronger binding; tyrosines were phosphorylated by kinases first
Conditions in all cases: peptide library: pTyr-Var
[1] = target: SHP2 C-SH2 domain E139D
[2] = target: SHP2 C-SH2 domain wild-type
[3] = target: SHP2 N-SH2 domain L43F
[4] = target: SHP2 N-SH2 domain T42A
[5] = target: SHP2 N-SH2 domain T52S
[6] = target: SHP2 N-SH2 domain wild-type
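Note: displayed peptides selected on beads carrying the immobilized SH2 domain, with library peptides lacking any tyrosine serving as negative controls.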

| Binder | enrichment score [1] | enrichment score [2] | enrichment score [3] | enrichment score [4] | enrichment score [5] | enrichment score [6] |
| --- | --- | --- | --- | --- | --- | --- |
| SPFEVYVDKSQ [FLNA_Y373] | inactive: 0.584 | inactive: 0.942 | inactive: 0.758 | inactive: 1.15 | inactive: 0.757 | inactive: 1.04 |
| AVDVTYDGHPV [FLNB_Y1020] | inactive: 0.591 | inactive: 0.585 | inactive: 0.657 | inactive: 0.712 | inactive: 0.694 | inactive: 0.677 |
| PGLSSYGVPGS [FLNB_Y1530_A1534G] | inactive: 0.817 | inactive: 0.717 | inactive: 0.644 | inactive: 0.543 | inactive: 0.475 | inactive: 0.736 |
| GPGLVYRVANK [FLNB_Y1833_G1834R] | inactive: 0.813 | inactive: 0.742 | inactive: 0.803 | inactive: 0.679 | inactive: 0.733 | inactive: 0.789 |
| RMDGTYACSFT [FLNB_Y704_YF] | inactive: 0.623 | inactive: 1.02 | inactive: 0.794 | inactive: 0.93 | inactive: 0.758 | inactive: 1.2 |
| TYAVSYLPDMS [FLNC_Y1602_T1599A] | inactive: 0.958 | inactive: 0.855 | inactive: 1.14 | inactive: 0.82 | inactive: 0.991 | inactive: 0.806 |
| TFAVSYLPDMS [FLNC_Y1602_T1599A_YF] | inactive: 1.09 | inactive: 0.975 | inactive: 1.22 | inactive: 1.13 | inactive: 1.34 | inactive: 1.27 |
| SRGSSYNSIPK [FLNC_Y2625_S2626N] | inactive: 0.723 | inactive: 0.558 | inactive: 0.511 | inactive: 0.47 | inactive: 0.423 | inactive: 0.619 |
| KSEKVYTRHGV [FLOT1_Y56] | inactive: 0.807 | inactive: 0.963 | inactive: 0.665 | inactive: 0.548 | inactive: 0.637 | inactive: 0.892 |
| KNEKVYTRHGV [FLOT1_Y56_S52N] | inactive: 0.47 | inactive: 0.654 | inactive: 0.677 | inactive: 0.742 | inactive: 0.602 | inactive: 0.559 |
| HQPGEYIFHAE [FLT3_Y416] | inactive: 0.979 | inactive: 0.512 | inactive: 0.949 | inactive: 0.531 | inactive: 1.15 | inactive: 1.51 |
| HQPGEYLFHAE [FLT3_Y416_I417L] | inactive: 0.749 | inactive: 1.16 | inactive: 0.916 | inactive: 0.718 | inactive: 0.949 | inactive: 1.03 |
| SLAARYYNWVS [FLT4_Y1230] | active: 4.12 | active: 3.72 | active: 3.91 | active: 3.6 | active: 3.98 | active: 3.32 |
| GGQVFYNSEFG [FLT4_Y1333_YF] | inactive: 1.1 | inactive: 1.21 | inactive: 1.19 | inactive: 1.12 | inactive: 1.17 | inactive: 1.22 |
| GRVLGYGTFGK [FLT4_Y853_A855T] | inactive: 1.16 | inactive: 1.38 | inactive: 0.686 | inactive: 1.08 | inactive: 0.776 | inactive: 1.3 |
| GRVLGYGAFRK [FLT4_Y853_G857R] | inactive: 0.354 | inactive: 0.237 | inactive: 0.242 | inactive: 0.317 | inactive: 0.247 | inactive: 0.313 |
| NAGAFYVLSTL [FLVCR2_Y325_A326V] | inactive: 0.722 | inactive: 0.86 | inactive: 0.713 | inactive: 0.671 | inactive: 0.788 | inactive: 0.868 |
| LGLDECLDKLK [FMNL2_Y352_Y352C] | inactive: 1.14 | inactive: 1.26 | inactive: 1.64 | inactive: 0.977 | inactive: 1.1 | inactive: 1.26 |
